The values that follow come from the supplement of paper PMC10477191.

± gives the standard deviation of the averaged measurements. The list shows a part of the results.

This assay relates to Drosophila novamexicana. Put plainly: attraction index (odor vs solvent trap) (index (-1 to 1)); higher = more attraction to the odorant. To be noted: test temperature 23 °C; odor dose: 10^-2 dilution in mineral oil. The method, then:
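Two-choice trap assay at 23 °C and 70% humidity. Starved adult flies (20 per box, 4-6 days old) chose between a trap with odorant (2 µl at 10^-2 in 200 µl mineral oil) and a solvent trap; counts were taken after 24 h.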
In turn, `COc1cccc(OC)c1O` [2,6-dimethoxyphenol] yielded an attraction index of 0.0952 ± 0.26. The compound `CC(=O)OC/C=C(\C)CCC=C(C)C` [geranyl acetate] had an attraction index of -0.0819 ± 0.35. Under `CC(=O)CCC=C(C)C` [6-methyl-5-hepten-2-one] stands -0.303 ± 0.36; under `COC(=O)c1ccccc1` [methyl benzoate], -0.247 ± 0.32.

The compound `CC(C)OC(=O)c1ccccc1` [isopropyl benzoate] displayed an attraction index of -0.119 ± 0.29.

For `C=CC(O)CCCCC` (stereo not drawn) [1-octen-3-ol], the attraction index was determined as 0.104 ± 0.22. Under `CCCCCCO` [1-hexanol] stands 0.298 ± 0.36. Then `CCCC(=O)OCc1ccccc1` [benzyl butyrate], with 0.313 ± 0.21; and `CC(=O)c1ccccc1` [acetophenone], with -0.201 ± 0.39; and `CCCCCOC(C)=O` [pentyl acetate], with -0.034 ± 0.38. `COc1ccccc1O` [guaiacol] gave an attraction index of -0.259 ± 0.23. Regarding `CCOC(=O)CC(C)O` (stereo not drawn) [ethyl 3-hydroxybutyrate], the attraction index worked out at 0.162 ± 0.32.

`CCCCCC(=O)OCC` [ethyl hexanoate] yielded an attraction index of 0.153 ± 0.36. `CCCCCC(C)=O` [2-heptanone] came in with an attraction index of -0.212 ± 0.36. Under `CCCCCCOC(C)=O` [hexyl acetate] stands -0.539 ± 0.24. Then `CCOC(=O)C(C)O` (stereo not drawn) [ethyl lactate], with -0.06 ± 0.36; and `CC(=O)C(C)O` (stereo not drawn) [acetoin], with -0.0587 ± 0.35; and `COC(=O)c1ccccc1O` [methyl salicylate], with 0.256 ± 0.21.
